Consider 167 variants from the RNAGym collection of RNA variant scans (doi:10.7554/elife.90254).

First the molecules themselves.
B1: LINE1-full (parent)
chain: UACGUAGGUGGUUUUCCCCUGAUAGUGCUAAGGGGGCCUGGAAGUUUGGACUGGGCAGAGCUCAACACAGCGUGGCAAAGUGGCUGUGGCUAGACUGCCUCUCUGGAUUCCUCGUCACUCAGCAGGGCAUCUCUGAGAGAAAUGCC

Read counts are not given, so values of variants with three or more changes are uncertain.

Variants of B1 are the subject of the data set. Put plainly: self-cleavage, relative activity (ratio to wild type); higher = more cleavage; in vitro, sequencing; the parent is a self-cleaving ribozyme.
Regarding U20A A43G A140G A141G, the self-cleavage worked out at 1.42.
Next, C16U U62C C71U A79G: 0.07; U20A U73C U132C U143A: 2.67; C16U U29C G93A: 0.16.
As for C19A U85A U119C, the figure is 0.19.
On to U20A U45A G74A U132C, for which the self-cleavage was determined as 0.8.
As for C19U A129G U132C, the figure is 1.58; as for U20A A78G U132C, 1.32.
With U20C A30G A136U, the self-cleavage turned out to be 1.13.
Regarding U20A U104C A138G, the self-cleavage stood at 2.89.
As for U20A A65G U73C A136G, the figure is 0.
As for U20A U52C A57G A77G, the figure is 2.45.
Next, U20A A22G A94G: 0.27.
Consider U20A G97A C110A, for which the self-cleavage was determined as 0.04.
As for C19G U23A A121U U134C, the figure is 1.1.
For the variant C18U U109A A129G, the self-cleavage was 1.14.
Take U15C U130C A136G: the self-cleavage is 1.52.
Next, U20A A77G U102C G125C A136U A142G: 1.36; U20C C99U U119C: 0.45; C18G A50G U112C A129G A138G: 0.
Regarding U20A A65G A67U U96A A140G, the self-cleavage amounted to 0.05.
Next, U15G U47A G74A A124G: 0.54; U20C A31U U47A A77U U119C A138G A141G: 1.53; C18U G74A U119C: 1.35.
Next, U20C A77G U81A: 2.45.
As for C17U C18A A31G C90U C120U U130C, the figure is 0.04; as for U20C G40C A57U A79G A142G U143A, 0.2.
As to U20A G36C A79G, the self-cleavage was 0.72.
As for C19U C37G A67C A141U, the figure is 0.03; as for U20A U62A U112C A138U, 0.02.
As for C18U A57G A78G A79G, the figure is 0; as for C16U U73C A136G, 1.91; as for U15C U91C A107G A129U, 0.98.
Next, U20A U119C C123U: 1.12.
Regarding U20C A43G A64U, the self-cleavage is 0.9.
Next, C19U A121G A142G: 0.97; U20A A69G A92G A124U: 0.
As for C16U G74A A77G, the figure is 0.93.
Turning to U15C U87A U96G A138G, the self-cleavage was found to be 0.22.
As for U20A U47C U108C, the figure is 0.6; as for C18U U102A A129G, 2.12.
With U20C G35A A121G, the self-cleavage came to 1.09.
As for U20C G32U A78G, the figure is 2.12; as for C19G C61A A77G A142G, 0.07; as for U20C A59G A64G A65G U109A, 0.
Next, C18U U46A A57U A124G: 0.04.
As for C19U U46C A64U U73A A107G, the figure is 0.51.
As to C19U A64U A65G U115G U132C, the self-cleavage is 0.
For U20C A59U C71U, the self-cleavage came out at 0.34.
Next, C19U A59G C123A U130A A136G: 0.15.
For U15C U132C A140G, the self-cleavage stood at 2.1.
Regarding U15C U102C U112A G127A, the self-cleavage turned out to be 1.51.
As for U20A A50G A64U A129G A138U, the figure is 0.74; as for C16U C110A A121U C128A, 0.91.
Next, U20A U39G G114U: 1.28; U20C A117G U132C: 1.53; U20C A57G U115A U134A G137U: 1.74.
As for C19U A43G U46C A59G, the figure is 0.24; as for C16A U96G U102A C110A U112C, 0.
Regarding U20A C76U U102C U104A A136C, the self-cleavage came out at 2.11.
As for U20A A22C U62C A65G G127U, the figure is 0.26; as for U20C A64G U73A, 0.4; as for C19A U73C A121G, 2.76.
Next, U20C C61A C99U A129G: 0.05; C19U G75A U130A U132A: 1.38.
Next, C19U A129U A138U A140G: 1.43; U20C G35A U46C A121U: 1.07; C19U A57U A124G U132C: 0.1.
C19A A59C U109A G135C A136U A141G: the self-cleavage is 1.33.
As to C19U A79G A92C, the self-cleavage was 1.15.
As for U20C G35A A94G, the figure is 0.17.
As for U20A G105A A140G, the figure is 1.25; as for C17U U29C U47G A67G A78G A94G C95U C128U U132A, 0; as for U20A U52A U108C U109C A129G, 0.
Next, C19A U62C U130C: 0.05; U20A U73C C118U A138U: 1.56.
Turning to C19U A30G A79G, the self-cleavage was 0.31.
Next, U20A G25A U62C G127A: 0.07.
With U20C A64G A67G, the self-cleavage is 0.
As for C19A G34C G55A U81C, the figure is 0.46.
Take U15C U115A C145A: the self-cleavage amounted to 1.45.
Next, C17U G32A A78G A138G A141G: 0.8; C18G U26C U47C A65G C84U U96A: 0; C18A U26C U52C: 1.15.
As for U20C A78U U87C, the figure is 0.04; as for U20A U96A A136G A138U C146U, 0.05; as for C17A G34U C90G C128U, 0.02.
Next, U20C A64C U119C U134C: 0.38; U20C A64G U96A U134C: 0.15.
In the case of U20A A22G U119A, the self-cleavage came to 1.23.
Next, C19U U45C A57U: 0.17; C17A G32A A59C U73G C110U: 0.74.
Next, U15C U96A G126A: 0.08; C19A U46A A92G A142G: 0.06; U20A A31C A43G U52A: 2.3.
As for U20C A31G A69G A142G, the figure is 0.61.
For the variant C19U U87C U143C, the self-cleavage amounted to 0.07.
In the case of U20A A43G A138U, the self-cleavage stood at 1.42.
Next, U20C A22G A79G A92U A136G: 1.02.
As for U20A A64G U100C A121G, the figure is 0.
As for C16U U39C U62A, the figure is 0.09; as for C19U U47C A64C A124G, 0.28.
Consider C19U U39C A77G G105A U112C, for which the self-cleavage is 1.69.
Consider U20C G25A U45G U81A, for which the self-cleavage turned out to be 2.15.
Next, U20C A69U G122A: 0.1; U20C A94G U100C U119A G122A: 0.66.
As for U20C A57G U102C G127U, the self-cleavage worked out at 1.04.
In the case of U20A A31U A64C A121U, the self-cleavage was found to be 0.37.
Next, U15G A42G A43G U85A U115C: 0.
As for C16A A30G U96C A121U, the figure is 0.23.
Next, C16A A64G U130G: 0.51; C18U U45C U62A: 0.06.
For C19U A22G U46A, the self-cleavage turned out to be 1.07.
Next, U20A U119A A121U C145A: 1.64; U20A A65G A67G U104A: 0.72.
Next, U20A U96G U115C: 0.25.
On to U20C A77U C113U, for which the self-cleavage came out at 1.41.
As for C19U U26A U39C U104C, the figure is 1.03; as for C17U U100C A141G, 1.28.
As for U20C G33A A67G G127U U143C, the figure is 0.33.
As for C19U U20A A92G, the figure is 0.12; as for C17U U47C G75A U96A U104C, 0.03.
Take U20A A22G G89A U115G: the self-cleavage was determined as 0.05.
Next, U20A A50G A78G: 0.22; U20C A43U U85A A138U: 0.11.
As for C18U U52A A59G G80A, the figure is 0.06; as for U20C A31G A124U, 2.19; as for U20C A31G A124G, 0.84.
As for U20A A64G C110U U119A, the figure is 0.36.
Take C18U A24G G25A C66A U85A U102C U112C: the self-cleavage is 0.
For the variant U15G U29C A65G U85A U104A U130A, the self-cleavage came out at 0.
As for U20C A43G A92G, the figure is 0.42; as for U15C U96A G127A, 0.05; as for C16U A129G U130A U143A, 0.9.
As to U20A A78G A129G A140G, the self-cleavage was 0.51.
Next, C17U U109C U134C A142G: 0.98; U20A U81A G89A U102A: 0.08; C16U U20C U29A U119C A129U U134C: 0.74.
Next, U15C U109A A129U: 2.69; U20A U23C U81C: 1.53.
As for U20C A59U A64G U91C, the figure is 0.6.
As to C17U C19U C37A A50G U62A, the self-cleavage came out at 0.17.
As for U20A U47C U115A, the figure is 1.76.
C19A A77G U96C: the self-cleavage turned out to be 0.17.
Next, U15C U102A U115C: 1.34.
On to C19U U112C A138G, for which the self-cleavage worked out at 0.22.
Next, C16U A124U A138G: 1.3.
As for U20A A42G A142G, the figure is 0.85.
Next, C17G U102C U119C: 1.08; U20C A42G U62C: 0.
For U15G U47A A121U, the self-cleavage amounted to 0.12.
As for C16U U47C U85A U102A, the figure is 0.38; as for C19U U45C U87A U109C A140G, 0.
Next, U20C A31G G48A U73C: 0.75; C19A G49A U73C A94U U132C: 0.
Next, U20C A31C U73C: 1.7.
As to C18A A57G U104A U112A C116U U143A, the self-cleavage was determined as 0.34.
As for U20C C90U A138G, the figure is 0.
Next, U20C A129G U134A: 0.93.
Next, U15C U119A U130C: 2.18; U20A G32A U62C U112C: 0; U20C C38U U39C C63A A124U U143C: 0.06.
For the variant U15C U100C A138G, the self-cleavage is 1.56.
Regarding C18A U26C U73A A107U C110A A138G, the self-cleavage was 0.98.
Next, C16U A124U A136G: 1.42; C19A A57G U96C U100A A107G G135A: 2.63; C19U C76U U134C: 1.39.
